# From PubChem BioAssay AID1030 (National Center for Advancing Translational Sciences (NCATS), 2008)
# Among all 220,000 compounds or so, about 16,000 (7.3%) were called active. This list was built around the results that the source calls inconclusive (neither active nor inactive); the mix of calls is not that of the screen. Calls come from the whole dose curve; as a rule, active = well fitted inhibition curve with a large enough effect (not every such curve was filed as active); inconclusive = small, poorly fitted or top-dose-only effect, or another doubt; inactive = no such curve, though single readings can be large or run the other way. Potencies of inconclusive entries are left out as doubtful fits.
# Biological target: Aldehyde dehydrogenase 1A1 (Homo sapiens) (UniProt P00352)
# Experiment: qHTS Assay for Inhibitors of Aldehyde Dehydrogenase 1 (ALDH1A1)
# Conditions: Purified ALDH1A1, NADH fluorescence, propionaldehyde substrate; series mostly up to 75.3 µM
# Potency is the fitted concentration of half-maximal effect; tags give direction and shape of the fitted curve.
# UniProt P00352, sequence (P00352 whole entry, looked up): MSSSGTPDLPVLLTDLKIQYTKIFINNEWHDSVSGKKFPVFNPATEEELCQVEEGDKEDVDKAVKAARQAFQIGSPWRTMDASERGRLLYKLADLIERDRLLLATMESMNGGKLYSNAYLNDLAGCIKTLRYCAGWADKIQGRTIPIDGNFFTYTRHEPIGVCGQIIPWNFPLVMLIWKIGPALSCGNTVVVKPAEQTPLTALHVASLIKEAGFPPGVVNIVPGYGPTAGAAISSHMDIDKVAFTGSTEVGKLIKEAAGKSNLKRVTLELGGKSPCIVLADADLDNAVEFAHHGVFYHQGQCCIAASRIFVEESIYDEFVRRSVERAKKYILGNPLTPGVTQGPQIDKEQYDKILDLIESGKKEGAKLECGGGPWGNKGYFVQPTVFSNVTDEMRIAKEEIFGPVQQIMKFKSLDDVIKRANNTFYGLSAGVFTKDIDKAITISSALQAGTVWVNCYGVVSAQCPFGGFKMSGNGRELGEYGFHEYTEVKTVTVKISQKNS
row,SMILES,Potency
1,COc1cc(/C=C/C(=O)c2ccc(F)cc2)cc(OC)c1OC,"inconclusive [inhibitor, single point]"
2,CC(C)(C)Cc1nnc(NS(=O)(=O)c2ccc(F)cc2)s1,"inconclusive [inhibitor, single point]"
3,CCCCC(=O)Nc1ccc(NC(=O)c2ccc([N+](=O)[O-])cc2Cl)cc1OC,inactive
4,CC1(C)Cc2c(c(-c3ccco3)nc3sc4c(NCCN5CCOCC5)ncnc4c23)CO1,"inconclusive [inhibitor, full curve]"
5,O=C(Nc1ccc(-c2nnc3n2CCCCC3)cc1)c1cc2ccccc2o1,inactive
6,CC(C)(C)NC(=S)NNC(=O)c1ccc2ncccc2c1,"inconclusive [inhibitor, single point]"
7,Cc1ccc(CC(=O)NCC(C)C)cc1,inactive
8,Cc1nn(-c2ccccc2)c(C)c1-c1nnc(-c2c(C)nn(-c3ccccc3)c2C)o1,"inconclusive [inhibitor, single point]"
9,O=c1ccc(/C=C/c2ccccc2)nn1Cc1ccc(Cl)cc1Cl,"inconclusive [inhibitor, single point]"
10,CCOC(=O)c1[nH]n(-c2ccc(Cl)cc2)c(=O)c1C,"inconclusive [inhibitor, partial curve, poor fit]"
11,O=C(CSc1nnc(-c2cnccn2)n1Cc1ccco1)c1ccc2ccccc2c1,"inconclusive [inhibitor, single point]"
12,O=C(NNC(=S)NC1CCCCC1)c1cccc(S(=O)(=O)Nc2ccccc2Cl)c1,"inconclusive [inhibitor, single point]"
13,COc1ccc(-c2csc(/C(C#N)=C/Nc3cc4oc5ccccc5c4cc3OC)n2)cc1,inactive
14,O=C(NC(=S)NN1CCCCC1c1cccnc1)c1ccc(Cl)cc1Cl (configuration not stated),inactive
15,Cc1sc2nc(CN3CCCC3)nc(NCc3ccncc3)c2c1C,"inconclusive [inhibitor, partial curve]"
16,O=C1CSC(c2ccc([N+](=O)[O-])cc2)N1C1CCCCC1 (configuration not stated),"inconclusive [inhibitor, single point]"
17,CCCc1cc(C(=O)Nc2cc(Br)ccc2O)no1,inactive
18,COC(=O)c1ccc(N2C(=O)CC(SCCN)C2=O)cc1 (configuration not stated),active: 12.6 µM
19,Cc1ccc2nc(NC(=O)CCn3c(=O)sc4ccccc43)sc2c1,"inconclusive [inhibitor, single point]"
20,O=C(Nc1cccc(F)c1)c1ccc(-c2ccccc2C(F)(F)F)o1,"inconclusive [inhibitor, partial curve]"
21,Cc1[nH]c2ccccc2c1CCN(Cc1cccs1)C(=S)Nc1ccccc1,"inconclusive [inhibitor, full curve, poor fit]"
22,COc1ccc(NS(=O)(=O)c2ccc3oc(Nc4ccc5c(c4)OCCO5)nc3c2)cc1,"inconclusive [inhibitor, single point]"
23,Cc1nc(-c2ccc3c(c2)OCCO3)cs1,"inconclusive [inhibitor, single point]"
24,O=C(c1cccc(F)c1)N1CCC(c2nc3ccccc3s2)CC1,inactive

row,SMILES,Potency
1,Cn1c(=O)c2c(nc(CN3CCc4ccccc4C3)n2Cc2ccccc2F)n(C)c1=O,"inconclusive [inhibitor, single point]"
2,CCOC(=O)c1c(NC(=O)COC(=O)CCS(=O)(=O)c2ccc(C)cc2)sc(C)c1C,"inconclusive [inhibitor, partial curve, poor fit]"
3,Cc1cc(NC(=O)CSc2ccc(-c3ccc4c(c3)OCO4)nn2)no1,inactive
4,CC(Nc1ccc(Br)cn1)c1cc(Cl)ccc1O (configuration not stated),inactive
5,CCOC(=S)SCC(=O)N1CCc2ccccc2C1C1C(=O)CC(C)(C)CC1=O (configuration not stated),"inconclusive [inhibitor, single point]"
6,COC(=O)c1cc(C(=O)OC)cc(-n2c(C)cc(C(=O)CC#N)c2C)c1,"inconclusive [inhibitor, single point]"
7,Cc1nc(-c2c(-c3ccc(O)cc3O)noc2C(F)(F)F)cs1,inactive
8,OCCC1CN(Cc2ccc3c(c2)CCO3)CCN1C1CCCC1 (configuration not stated),"inconclusive [inhibitor, partial curve]"
9,CCc1nnc(NC(=O)C2Cc3ccccc3CN2S(=O)(=O)c2cccs2)s1 (configuration not stated),inactive
10,O=C(O)CSc1nc2ccccc2s1,inactive
11,Cc1nonc1CC(=O)N1CCc2c([nH]c3ccccc23)C1c1ccccc1F (configuration not stated),"inconclusive [inhibitor, single point]"
12,CCCOC(=O)C1=C(C)NC2=C(C(=O)C(C(=O)OC)C(C)C2)C1c1ccc(N(C)C)cc1 (configuration not stated),"inconclusive [inhibitor, single point]"
13,N#Cc1c(C(F)(F)F)cc(-c2ccccc2)[nH]c1=O,"inconclusive [inhibitor, partial curve]"
14,COc1ccc(C(C)(C)C)cc1NC(=S)NCCN1CCOCC1,inactive
15,Cc1cc2ccccc2n1CCNC(=O)C(C)C,inactive
16,CC(C)(C)C(=O)Nc1cc2nn(-c3ccccc3)nc2cc1Cl,"inconclusive [inhibitor, single point]"
17,COc1cc(Cl)c(C)cc1NC(=O)c1ccc(NS(=O)(=O)c2ccc(F)c(F)c2)cc1,"inconclusive [inhibitor, partial curve, poor fit]"
18,Cc1cc(-c2ccco2)n(CC(=O)NCCN(C)C)n1,"inconclusive [inhibitor, single point]"
19,Cc1cc(=O)n(-c2ccc(O)cc2)[nH]1,active: 0.794 µM
20,COc1ccc(C(=O)N2c3ccccc3C(=O)OC2c2ccc3c(c2)OCO3)cc1 (configuration not stated),"inconclusive [inhibitor, single point]"
21,Cn1c(NC(=O)c2ccc(C(C)(C)C)cc2)cc(=O)n(C)c1=O,"inconclusive [inhibitor, partial curve]"
22,CC1=NN(c2ccc(Br)cc2)C(=O)/C1=C/c1cccs1,active: 2.24 µM
23,CCOC(=O)c1c(NC(=S)Nc2ccccc2)sc(C)c1C,active: 25.1 µM
24,Cc1ccccc1NC(=O)C(NC1CCCCC1)C(C)C (configuration not stated),inactive

row,SMILES,Potency
1,C[C@@H]1O[C@@H](O[C@@H]2[C@@H](O)[C@H](OCCc3ccc(O)c(O)c3)O[C@H](CO[C@@H]3O[C@H](CO)[C@@H](O)[C@H](O)[C@H]3O)[C@H]2OC(=O)/C=C/c2ccc(O)c(O)c2)[C@H](O)[C@H](O)[C@H]1O,"inconclusive [inhibitor, single point]"
2,Cc1ccc(-n2nnc3c(=O)n(Cc4cccc(C)c4)cnc32)cc1,inactive
3,O=C(Cn1nnc2ccccc21)Nc1ccccc1[N+](=O)[O-],inactive
4,COC(=O)CCc1sc(NC2CCCCC2)nc1-c1ccc(OC)cc1,"inconclusive [inhibitor, partial curve]"
5,S=c1[nH]nc(-c2ccc(Cl)cc2Cl)n1Cc1ccccc1,active: 31.6 µM
6,CC(C)(C)N1C(=O)c2ccc(C(=O)NCc3ccco3)cc2C1=O,active: 8.91 µM
7,O=C(O)c1[nH]c2ccc(Cl)cc2c1CC(=O)N1CCN(C(=O)c2ccco2)CC1,"inconclusive [inhibitor, single point]"
8,O=C(CSC1=NCCN1)NC12CC3CC(CC(C3)C1)C2,"inconclusive [inhibitor, single point]"
9,O=C1c2ccccc2C(=O)N1CCCCN(C(=O)c1cc2ccccc2oc1=O)c1ccc(Cl)cc1,active: 7.94 µM
10,COCCn1nnnc1SCC(=O)Nc1ccc2c(c1)OCO2,active: 20 µM
11,Cc1cc(C)cc(-n2ccnc2SCC(=O)Nc2ccc3c(c2)OCCO3)c1,"inconclusive [inhibitor, single point]"
12,CCCCCCOc1ccc(C(CC(N)=O)C(=O)O)cc1 (configuration not stated),inactive
13,COc1ccc(/C=C/C(=O)NC2=NCCS2)cc1OC,"inconclusive [inhibitor, partial curve]"
14,CCCn1c(-c2ccc(F)cc2)nc2c(NCC3CCN(C)CC3)nc(C)nc21,"inconclusive [inhibitor, partial curve]"
15,CCOC(=O)N1CCC(N2Cc3cccc(C(=O)N4CCN(c5cccc(Cl)c5)CC4)c3C2=O)CC1,inactive
16,CN=C(Nc1ccc(C)c(C)c1)SC1CC(=O)N(c2ccc(OC)cc2)C1=O (configuration not stated),"inconclusive [inhibitor, single point]"
17,Cc1ccc(C(C2C(=O)CC(C)(C)CC2=O)C2C(=O)CC(C)(C)CC2=O)s1,active: 7.08 µM
18,S=C(Nc1ccccc1)Nc1ccc(Cl)cc1Cl,active: 7.94 µM
19,CC1NC2(C(=O)N(Cc3ccccc3)c3ccccc32)C2C(=O)N(c3ccccc3)C(=O)C12 (configuration not stated),active: 14.1 µM
20,O=C(CCCn1c(=O)[nH]c2ccccc2c1=O)N1CCN(c2ccccn2)CC1,"inconclusive [inhibitor, single point]"
21,C=CCOC(=O)C1=C[C@@H](c2cn(C(C)=O)c3ccccc23)C[C@@H](OCCCCO)O1,"inconclusive [inhibitor, single point]"
22,CCOc1ccc(C(=O)NC(=S)Nc2ccccn2)cc1[N+](=O)[O-],"inconclusive [inhibitor, single point]"
23,O=c1c(Sc2ccccc2)c(C(F)(F)F)[nH]n1-c1ccccc1,inactive
24,COc1cccc(C(=O)Nc2ccc3nc(N4CCN(c5ncccn5)CC4)cc(C)c3c2)c1OC,"inconclusive [inhibitor, single point]"
